Assay results from the RNAGym collection of RNA variant scans (doi:10.1093/nar/gkz1192).
The source gives no read counts; variants with many changes may rest on few reads.

B1: CPEB3 Ribozyme (parent)
chain: UAACAGGGGGCCACAGCAGAAGCGUUCACGUCGCAGCCCCUGUCAGAUUCUGGUGAAUCUGCGAAUUCUGCUGUAUAUCUC

Variants of: B1
Experiment: self-cleavage, relative activity (ratio to wild type); higher = more cleavage; in vitro, sequencing
How it was run: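 Relative activity compares each variant's cleaved/total read fraction with that of the unmutated ribozyme. To get these fractions, barcoded CPEB3 ribozyme libraries from rounds of error-prone PCR were transcribed with T7 RNA polymerase for 5 hours at 37°C and then given 15 min of DNase I treatment before EDTA was added. The RNAs were reverse transcribed with template switching and sequenced on Illumina, and DNA sequencing linked barcodes to variants. A minimum of 5 reads applied, and three batches were averaged.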

| Variant | self-cleavage |
| --- | --- |
| A13G A18G A35U U41C | 0.1 |
| A13G A18G A56G U60C U80C | 0.11 |
| A13G A18G C32A A64C U69C U72A | 0.05 |
| A13G A18G C32U U43A A47G U54C A57G | 0.03 |
| A13G A18G C40U A45G A47U U48C U66G | 0.03 |
| A13G A18G U25A A56C | 0.14 |
| A13G A18G U31G U41A | 0.26 |
| A13G A18G U41C U66C | 0.21 |
| A13G A18G U43A A56G | 0.11 |
| A13G A18G U48C | 0.18 |
| A13G A18U A20G G70A U72C | 0.12 |
| A13G A18U A28U A35G | 0.1 |
| A13G A18U A28U U31A U76G U80C | 0.06 |
| A13G A18U C29G | 0.1 |
| A13G A18U U26C | 0.17 |
| A13G A18U U31C U51C | 0.08 |
| A13G A18U U51C A57G U80C | 0.26 |
| A13G A18U U58C A64U U69A A77G | 0.09 |
| A13G A18U U69C | 0.18 |
| A13G A20C A45G G46U U51A U69A U78A | 0.08 |
| A13G A20C A65U U67A U72A | 0.06 |
| A13G A20C G24A G52C U69A U80A | 0.34 |
| A13G A20G A45U G53A U72C | 0.22 |
| A13G A20G A65G U72C | 0.11 |

| Variant | self-cleavage |
| --- | --- |
| A13G A20G C23U C29A U49A A56G | 0.08 |
| A13G A20G C38A U43C | 0.06 |
| A13G A20G G30C | 0.3 |
| A13G A20G G30U | 0.05 |
| A13G A20G G42U | 0.17 |
| A13G A20G U25C U43C G52U A57G U72C | 0.8 |
| A13G A20G U26A A45G U60C | 0.22 |
| A13G A20G U26A U48C U60C | 0.06 |
| A13G A20G U26C U41C U60A A64U U67C | 0.01 |
| A13G A20G U26C U60C | 0.3 |
| A13G A20G U31C U72A | 0.18 |
| A13G A20G U41C | 0.71 |
| A13G A20G U41C U48C A56G A64G | 0.17 |
| A13G A20G U43A U76A | 1.12 |
| A13G A20G U76A | 0.81 |
| A13G A20U A35G A57G | 0.13 |
| A13G A20U C40A C50A | 0.15 |
| A13G A20U U26C C29U U48C A64G A75G | 0.04 |
| A13G A20U U26C G42A | 0.22 |
| A13G A20U U54C A56G A57G | 0.05 |
| A13G A20U U72A | 0.12 |
| A13G A20U U72C | 0.12 |
| A13G A21C A45C A77G | 0.06 |
| A13G A21C A77U | 0.44 |

| Variant | self-cleavage |
| --- | --- |
| A13G A21C U80A | 0.1 |
| A13G A21G A28G | 0.46 |
| A13G A21G C32U | 0.1 |
| A13G A21G C50U U51C U60A U78C | 0.15 |
| A13G A21G G22A U49C A57U U72C | 0.04 |
| A13G A21G G30C U51C | 0.05 |
| A13G A21G U25C | 0.31 |
| A13G A21G U25C U60C U78C | 0.05 |
| A13G A21G U25C U74C | 0.11 |
| A13G A21G U48C U49C U58C U60A | 0.11 |
| A13G A21G U51A A56U G70A C71G | 0.18 |
| A13G A21G U67C | 0.12 |
| A13G A21G U72A U80C | 0.35 |
| A13G A21U A35G G55U U69C | 0.07 |
| A13G A21U A56G A57C | 0.1 |
| A13G A21U U41A C44A | 0.21 |
| A13G A28C U31A U48C G63A | 0.28 |
| A13G A28C U51A A56G A57G G63C U80C | 0.09 |
| A13G A28G A56G U67C A75U U76C | 0.03 |
| A13G A28G C29U U43C G61A U78C | 0.05 |
| A13G A28G G63A U66C | 0.08 |
| A13G A28G U31A A64U U72C | 0.08 |
| A13G A28G U41A A57G U69C | 0.19 |
| A13G A28G U48C | 0.26 |

| Variant | self-cleavage |
| --- | --- |
| A13G A28G U48G U60C G63U A77G | 0.24 |
| A13G A28G U69A | 0.27 |
| A13G A28U A45G | 0.21 |
| A13G A28U C39G G55A | 0.12 |
| A13G A28U G73A | 1.08 |
| A13G A28U U49C A56G A65U | 0.08 |
| A13G A28U U60C | 0.17 |
| A13G A35C U48G C50G U51C U67A | 0.2 |
| A13G A35G G46C U49C | 0.05 |
| A13G A35G G55C | 0.7 |
| A13G A35G U41A U67A | 0.17 |
| A13G A35G U41C A57G U69C | 0.16 |
| A13G A35G U41C U54C A65U U67A | 0 |
| A13G A35G U43C | 0.13 |
| A13G A35G U49C | 0.15 |
| A13G A35G U54G A57U U58C G73A | 0.24 |
| A13G A35G U66C | 0.38 |
| A13G A35U A45G U69A U74C | 0.17 |
| A13G A35U U54C | 0.65 |
| A13G A45C U54C | 0.23 |
| A13G A45C U60C | 0.35 |
| A13G A45G A47G | 0.37 |
| A13G A45G U48A U69C U80A | 0.13 |
| A13G A45G U49A A56G A77U U80A | 0.55 |

| Variant | self-cleavage |
| --- | --- |
| A13G A45G U54C A65G | 0.26 |
| A13G A45G U72C U78A | 0.92 |
| A13G A45U G55A A77G | 0.24 |
| A13G A47G A64G | 0.69 |
| A13G A47G U60C U66A | 0.23 |
| A13G A47G U60C U66A U72G | 0.13 |
| A13G A56G A57G U66C U69C | 0.08 |
| A13G A56G U60A C68G A75G U78C | 0.12 |
| A13G A56G U74C | 0.67 |
| A13G A57C U60A A65U | 0.08 |
| A13G A57G U60C | 0.27 |
| A13G C14U A18G A35U U48C U72C | 0.16 |
| A13G C14U A21U A65G U66C | 0.05 |
| A13G C14U A45G U51C U54A U76A | 0.88 |
| A13G C14U C32U G55U | 0.21 |
| A13G C17U A28G A47G A64U | 0.23 |
| A13G C17U G33A U48C A56G | 0.05 |
| A13G C23A A35G | 0.11 |
| A13G C23A U25G G30A | 0.35 |
| A13G C23G C32U A75G | 0.19 |
| A13G C23U U26C A45C U69C | 0.15 |
| A13G C29A U49A U51A | 0.21 |
| A13G C29A U72C | 0.34 |
| A13G C29U A64C | 0.43 |

| Variant | self-cleavage |
| --- | --- |
| A13G C29U C38U A56U | 0.08 |
| A13G C29U C38U U51C | 0.28 |
| A13G C29U U67A | 0.06 |
| A13G C32A U41C U67A U72C | 0.09 |
| A13G C32A U48C A56G U80C | 0.08 |
| A13G C32A U58C C59U U69C U78A | 0.05 |
| A13G C32U A47C | 0.07 |
| A13G C32U A65G U72C | 0.11 |
| A13G C32U C39U A45U | 0.21 |
| A13G C32U U58C | 0.11 |
| A13G C34U U43A U67A A77U | 0.09 |
| A13G C37G A57G | 0.5 |
| A13G C40A U54C U69C U74C | 0.14 |
| A13G C40U A47G | 0.62 |
| A13G C44A A57G A65G | 0.18 |
| A13G C44U G63A U74C A75G | 0.73 |
| A13G C59U U60C | 0.12 |
| A13G C62G U76A | 0.4 |
| A13G G16U A28U C40G U41C C50A U67A | 0.04 |
| A13G G16U U78C | 0.3 |
| A13G G19A A20U A35C | 0.26 |
| A13G G19A C23U A65U | 0.13 |
| A13G G19A C34A A45G U72A | 0.04 |
| A13G G19C A20G | 0.11 |

| Variant | self-cleavage |
| --- | --- |
| A13G G19C A20U U60G U66A | 0.05 |
| A13G G19C U25C G46A | 0.14 |
| A13G G19C U25C G53A | 0.29 |
| A13G G19C U66C | 0.12 |
| A13G G19U U26C | 0.11 |
| A13G G22A A35G U67C C79U | 0.06 |
| A13G G22A U41C U60G A65G | 0.05 |
| A13G G22C A28G A47U A64G | 0.1 |
| A13G G30C U41A U43A U48A U74A | 0.1 |
| A13G G33A U41C A45U U54C U60A A64G | 0.13 |
| A13G G36A U41C U49C U54C | 0.17 |
| A13G G46A U60C | 0.2 |
| A13G G52C U60C | 0.29 |
| A13G G53U U67C C79A | 0.3 |
| A13G G53U U69A | 0.39 |
| A13G G55U U67C | 0.12 |
| A13G G63C A64G | 0.73 |
| A13G G63C C68A | 0.21 |
| A13G G63U A75G | 1.07 |
| A13G U25A A56G | 0.31 |
| A13G U25A C39A U41G A64U U80A | 0.16 |
| A13G U25A C40U A57G U60G C62U A77U | 0.09 |
| A13G U25A U72C | 0.06 |
